Test results as given in the supplement of paper PMC12217912.
The other results are listed elsewhere or left out. Sequences were assembled here from the parent chain. Values near 0.05 are background.

B1: TEV protease; numbered along this chain (parent)
chain: MGESLFKGPRDYNPISSSICHLTNESDGHTTSLYGIGFGPFIITNKHLFRRNNGTLVVQSLHGVFKVKDTTTLQQHLVDGRDMIIIRMPKDFPPFPQKLKFREPQREERICLVTTNFQTKSMSSMVSDTSCTFPSGDGIFWKHWIQTKDGQCGSPLVSTRDGFIVGIHSASNFTNTNNYFTSVPKNFMELLTNQEAQQWVSGWRLNADSVLWGGHKVFMVKPEEPFQPVKEATQL

Variants of: B1
Experiment: raw area under fraction-flipped curve 0-4 h after induction (AUC4h, not background-subtracted), DNA-recorder readout of cleavage of the substrate (dimensionless); higher = more cleavage of the substrate by the protease variant
Conditions: temperature: 34 °C; time window: 0-4 h after rhamnose induction
Experimental: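 In vivo DNA recorder in E. coli TOP10(DE3) ΔrhaA at 34 °C. Each TEVp single-site mutant (parent TEVp 0) is paired with a single-site variant of the 7-mer TEVs (canonical ENLYFQ|S). The substrate sits between flexible linkers in a Bxb1-sfGFP-TEVs-SsrA fusion, so cleavage stabilises Bxb1 and speeds flipping of a recombination array, read by NGS. The value is the raw area under the fraction-flipped curve over 0-4 h after rhamnose induction (AUC4h), with ≥20 reads per time point. It is not background-subtracted; inactive controls average about 0.047.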
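Note: Bxb1 expression induced with 0.2% (w/v) L-rhamnose at OD600 near 0.5, cultures sampled hourly, flipped fraction per protease–substrate barcode pair counted by paired-end Illumina sequencing.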

Variant	area with substrate CNLYFQS	area with substrate DNLYFQS	area with substrate FNLYFQS	area with substrate HNLYFQS	area with substrate KNLYFQS	area with substrate LNLYFQS	area with substrate MNLYFQS	area with substrate NNLYFQS	area with substrate PNLYFQS	area with substrate QNLYFQS	area with substrate TNLYFQS	area with substrate VNLYFQS	area with substrate WNLYFQS	area with substrate YNLYFQS	area with substrate GNLYFQS	area with substrate INLYFQS	area with substrate SNLYFQS	area with substrate RNLYFQS
G202Q	0.0735	0.0665	0.0544	0.055	0.05	0.0604	0.0672	0.0633	0.0527	0.0657	0.0614	0.0591	0.0554	0.0571	–	–	–	–
F180N	0.0587	0.0711	0.0599	0.0531	–	–	0.0443	–	0.0551	–	0.0575	–	0.0445	0.0537	0.0534	0.0254	0.0614	–
Q197D	0.0512	0.0523	0.0691	0.0647	–	0.0518	0.0656	0.0654	0.0594	–	0.0691	0.0593	0.0717	0.0633	–	–	–	–
L191A	0.079	0.0583	–	0.0534	–	–	–	0.0529	–	–	0.0637	–	–	0.0502	0.0495	–	–	–
L191K	0.0561	0.0456	0.0533	0.0599	0.0587	–	0.0507	0.0495	0.0628	–	0.0617	–	0.0519	0.0504	0.0451	0.0336	–	0.0334
L191Y	0.0666	0.0571	0.0535	0.0629	0.0703	–	0.0503	–	0.0567	0.0646	0.056	–	0.0384	0.0549	0.0072	–	0.0576	–
L191F	0.0554	0.0731	0.0716	0.0597	–	0.0576	0.0562	0.0693	0.0585	–	0.0635	0.0713	0.0569	0.0572	0.0593	0.056	0.0644	0.0575
S209V	0.105	0.0887	–	0.0715	–	–	0.0786	0.0693	0.0803	–	0.0672	–	0.0587	0.0801	0.0757	0.0749	0.0618	–
K185G	0.0814	0.0532	0.0617	0.0635	0.0738	0.062	–	–	0.0722	0.0832	–	–	–	0.0515	–	0.0637	0.0685	0.074
T192M	0.0619	0.078	0.0789	0.0623	0.0791	0.063	–	0.0678	–	0.0852	0.0673	0.0737	0.044	0.0669	0.0703	0.0571	–	–
L190Y	0.0626	0.0749	–	0.0556	–	–	0.059	0.063	0.0479	–	0.0694	–	0.0525	0.0262	0.0737	0.0551	–	0.0615
L190M	0.0824	0.0819	0.0584	0.0704	–	0.0664	–	–	0.0754	–	0.0648	0.0594	0.0576	0.0606	–	0.0659	0.051	0.0547
F187M	0.0855	0.0657	–	0.0699	0.0672	–	0.0635	0.0725	0.068	–	0.0377	–	0.0564	0.0676	0.0693	–	0.105	–
E195K	0.0677	0.0749	0.0664	0.0654	–	0.056	–	0.0603	0.0611	0.0633	0.0682	–	0.0613	0.0614	0.0785	0.0427	0.0699	0.0656
N177S	0.0562	0.0602	0.046	0.0506	0.069	0.0553	0.0525	0.0495	0.0631	0.0475	0.0497	0.0383	0.0524	0.0422	0.0743	0.0519	0.051	0.0514
R204L	0.0652	0.0794	0.059	0.0532	0.0588	0.0691	–	–	0.0699	–	0.0643	–	0.0609	0.0494	0.0656	0.0592	0.0683	–
R204F	0.0639	0.0792	0.0711	0.0654	0.0725	0.0699	0.0682	0.0616	0.0656	0.0843	0.106	0.0763	0.0655	0.0646	0.0701	0.0565	0.0811	0.0472
W199E	0.0686	0.055	–	0.0588	–	0.0652	0.0559	0.0632	0.0545	0.0753	0.0563	–	0.0556	–	0.0598	0.0687	0.0585	0.0688
W199N	0.0593	0.0571	–	0.0619	–	0.0784	–	–	0.0666	0.0559	0.0722	–	0.059	0.0518	–	0.0637	–	0.0364
L205M	0.0935	0.0997	0.0639	0.0674	0.0843	–	0.0728	0.0632	–	–	0.0743	–	–	0.075	0.0802	0.0699	0.0502	–
L205G	0.0654	0.0771	0.0451	0.0592	–	0.075	–	–	0.0574	0.0836	0.0589	0.0645	0.0585	0.0497	0.0511	0.0665	0.0606	–
M188P	0.0236	0.008	–	–	–	–	–	–	0.0613	–	0.0689	0.0664	–	–	–	–	–	–
W203N	0.0614	0.0688	0.0584	0.0655	0.0718	–	0.0661	0.0473	0.0545	0.0633	0.0551	0.0787	0.0519	–	–	–	0.0619	0.058
W203G	0.0519	0.0464	–	0.0483	0.0707	0.0449	–	–	0.0603	–	–	–	0.063	0.063	0.0594	0.0606	–	0.0576
S201R	0.0672	0.0909	0.0654	0.0672	–	0.0434	0.0684	0.0621	0.059	0.0786	0.0601	–	0.0648	0.0704	–	0.0544	0.0616	–
Q194F	0.0871	0.0756	–	0.0669	–	–	–	0.0672	–	–	0.0634	–	0.0492	0.0592	0.0987	0.0719	–	–
V183H	0.0479	0.0455	–	–	0.0462	–	0.0629	–	0.0585	0.0639	0.0525	0.0349	0.0576	0.0574	0.0368	0.054	–	–
